The other results are listed elsewhere or left out.
T1: UNK ZnF1-3 (human, UniProt Q9C0B0 31-174)
T1 sequence: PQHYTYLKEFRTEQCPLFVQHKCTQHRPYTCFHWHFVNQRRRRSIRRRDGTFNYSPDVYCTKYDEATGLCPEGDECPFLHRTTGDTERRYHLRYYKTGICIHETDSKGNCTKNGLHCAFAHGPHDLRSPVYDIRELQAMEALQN

B1: chr11:46405157:46405158:+_ENSG00000110492_ENST00000395566|hu_hu|hu_hu_hu_mus_False|28_68 (ssRNA)
RNA: GGGAGUUCUACAGUCCGACGAUCCCCUCCCCACUUUGGGCACUUGGUGUGGGCGUGAGAGGACAGGAUGAUUGAUUAGAGCUGACAGGAAGACAAAAGGCACUGGUGGGUCACAUCUUGGGCCUGUGGGAGAGGAGGGCUCCGCAACAGAGGAUUGAGCAUCA
B2: chr1:118462952:118462953:-_ENSG00000196505_ENST00000369442|hu_mus|FALSE|FALSE (ssRNA)
RNA: GGGAGUUCUACAGUCCGACGAUCCGUACGAGUCGCCCCAGCUUAGCAGGGUAUCCACAUCCACAAACUGGGAAGGUGCACCCAAGGGAUCCAUGGAAUGGGAGCUUCAGCUCGUGAACCAAACUCUUUGGCAAUUCAACAAUCCAACAGAGGAUUGAGCAUCA
B3: 109674737_109693794_237_CDS_ENSMUSG00000031924_ENSMUST00000034400|mouse|control|control (ssRNA)
RNA: GGGAGUUCUACAGUCCGACGAUCAUCAGGGGAGUGGCCGACAUCUUCAAAGCUUUCAGUUGCAUCAGCACCCGCUUGUUCCAGCAGAACCUCUUCCCCGCCAGGAUGCUCGCUGAGGAAGCGGGUGAUAUCGUAGACUCGCCCCAACAGAGGAUUGAGCAUCA
B4: chr18:42480448:42480449:+_ENSMUSG00000024491_ENSMUST00000091920|mus_hu|FALSE|FALSE (ssRNA)
RNA: GGGAGUUCUACAGUCCGACGAUCGAAGUGUUCAUUGAGCUUGGUAAUGUUGUUCAAUUCCUGAGGGAUUUUCUUGACUUCUAAUUUGGUGUUUGUAUACUGAUUCUUUCGUAAGAACCCUGGUUUAUUUUGAUUGUUAUUUCCCAACAGAGGAUUGAGCAUCA
B5: chr1:231410971:231410972:+_ENSG00000116906_ENST00000366647|hu_hu|motif|central (ssRNA)
RNA: GGGAGUUCUACAGUCCGACGAUCCAAAAGGUACUUGCAAAUUAUCUGAUAGCUUUCCACAAAAGGUUUAAAGAGUCCGGCGGAAAAUUCUAACACAGUAUUUCCUUUCUCUGUAACUAGGAUGUCUUUCGUAGUCACUUGUAUCAACAGAGGAUUGAGCAUCA
B6: chr11:102258902:102258903:+_ENSMUSG00000006575_ENSMUST00000006750|mus_hu|FALSE|FALSE (ssRNA)
RNA: GGGAGUUCUACAGUCCGACGAUCAAAAUUGACAAACUCCUCCGAUGAGUCAUCGAUGGGCUCCGCUGUGUACUUCUCCAGCAGCGUUUUCACAGAGAACCUGCACACGGUGAUCAGGUUCUUACGCUCCACAGCCACGUUGCGCAACAGAGGAUUGAGCAUCA
B7: chr7:90019433:90019434:+_ENSMUSG00000057706_ENSMUST00000082237|mus_hu|FALSE|FALSE (ssRNA)
RNA: GGGAGUUCUACAGUCCGACGAUCAAAUAAUACAGUGUUCUUUGCCAUAAGGCCAUACUAAAAUAAAAAGAUUUAACCCAGCUACAAAAAAGUUCACUGAACUUAAAUUAAAAUACUUGUAAACAUCUUUGCAAUAUGAAAUAUCAACAGAGGAUUGAGCAUCA
B8: chr16:45382771:45382772:-_ENSMUSG00000022661_ENSMUST00000163230|mus_mus|mus_mus_mus_hu_True|1_98 (ssRNA)
RNA: GGGAGUUCUACAGUCCGACGAUCCUGGGUCAUGUUAUGGGCCCAAUGGACAGGGAGGGCAUGCUUCUCAAAAAAUGUGAGCUAUUGUCUAAGACUAACAAUAUUUAUCUAGCUAUAAAAAUAAGUUAAAUGAAUAAACAUUACCAACAGAGGAUUGAGCAUCA
B9: chr16:94651144:94651145:+_ENSMUSG00000040785_ENSMUST00000117648|mus_hu|mus_mus_mus_hu_True|28_108 (ssRNA)
RNA: GGGAGUUCUACAGUCCGACGAUCAUUCUCUUGGAUCAAGUGGCGAAUAACAUAGUCCACUGCUUCAUUUAGAAAAUUUCUGCUAGAAAAACAGGUUGUAUAGUCUUCCGUGCUCAGAACUUUCCAAGAAAGCAAUUCUUUGAGCAACAGAGGAUUGAGCAUCA
B10: chr3:41265538:41265539:+_ENSG00000168036_ENST00000349496|hu_mus|FALSE|FALSE (ssRNA)
RNA: GGGAGUUCUACAGUCCGACGAUCCAUGUCCAACUCCAUCAGGUCAGCUUGAGUAGCCAUUGUCCACGCAGCGGUGUCACAGCAGCUGUGCGCUGAGCUUCAGGUACCCUCAGGCCCGCGCGCUGCUCACUCGCGGCCGCCCGCCAACAGAGGAUUGAGCAUCA
B11: chr14:102233281:102233282:+_ENSG00000078304_ENST00000556260|hu_hu|motif|central (ssRNA)
RNA: GGGAGUUCUACAGUCCGACGAUCACUUCUAAAAAUGUAACAUUGGACACAGUACACACACUUAAAAGAAACAACACCCACCGGUGGUCUGAUCUUACAAAAUGGACUUGAGGAAACUCAGAGCAAUUUAUUAACAUUCUAAAUCAACAGAGGAUUGAGCAUCA
B12: 51805483_51809604_565_3pUTR_ENSMUSG00000022314_ENSMUST00000022927|mouse|control|control (ssRNA)
RNA: GGGAGUUCUACAGUCCGACGAUCAUAUCAUCUAAAUCUGGCAGUGGCUGAUCAAAAUCGUGGAAUUCCUCAGGUAAAGUAAUGGCAUUAUAAGCUGCUUCCCGAUUUUCCUCAGGUAGAUCGACAACACCUGGCCGAAACGCCCAACAGAGGAUUGAGCAUCA
B13: chr12:12974248:12974249:+_ENSG00000213782_ENST00000358007|hu_hu|motif|central (ssRNA)
RNA: GGGAGUUCUACAGUCCGACGAUCCAGGGCUUCAAACUGCUCUGAGAUCUGAAAGGCCAGCUCCCGAGUCGGGGUAAGAACGGGGGCAAACAAACGCUGCGGGGUCUCCAGCAGUGCGUUUAGAAUGGGCAAAGCAAAGGCGCCCAACAGAGGAUUGAGCAUCA
B14: chr12:46205223:46205224:+_ENSG00000189079_ENST00000334344|hu_mus|FALSE|FALSE (ssRNA)
RNA: GGGAGUUCUACAGUCCGACGAUCCUGUGGCUUUGGAUUGCCUGGUGGUACCUCAUCAUCAUCUUCCCCAAAAUGAUGAACUUUCUCGUACUUUUCUAGAUAACGCAAGUAAUACUGUUUUAAAGCAAAGGCAGCGUUGGAACACAACAGAGGAUUGAGCAUCA
B15: chr17:74307696:74307697:-_ENSG00000161542_ENST00000324684|hu_mus|FALSE|FALSE (ssRNA)
RNA: GGGAGUUCUACAGUCCGACGAUCGUUCCGGAAGAGGUAAGCCAUAGACUCUCCAUUGUGGAUUCUCCGAAUCGCCUCAGAAAGAAUCAGGCUGAUGUCCACAGUCUUUAUCUUGGGACACUGUAGUUUCUGAAGUUCAUGAGGCAACAGAGGAUUGAGCAUCA
B16: chr10:24632488:24632489:+_ENSMUSG00000019984_ENSMUST00000092646|mus_mus|FALSE|FALSE (ssRNA)
RNA: GGGAGUUCUACAGUCCGACGAUCAGGUGCUGGAGACCCGCUGUUGAGGGCCUGGGGUGGCACUGCCGGCUCCAUCUUGCUAAUGUGCGUGAUGAAUCGAAGACGAAGCUUUAAAGCCGGCUUUAAAUUACAGAUAAUCUUCUCCAACAGAGGAUUGAGCAUCA
B17: chr9:44565267:44565268:-_ENSMUSG00000032096_ENSMUST00000034607|mus_hu|motif|central (ssRNA)
RNA: GGGAGUUCUACAGUCCGACGAUCAUUAAUGGGUGGAGCAUGCAUUUUGGUUGCUUCAGAAGUACGCUUGCCCAUACGGGAGGACAUGAUGGUUUCACCUUCAGAUUUUAAUUUGUCCACAAAGUUAUCUACUUCCUUUCCUUUCAACAGAGGAUUGAGCAUCA
B18: chr5:143665172:143665173:-_ENSMUSG00000029580_ENSMUST00000100497|perfect_dup|FALSE|FALSE (ssRNA)
RNA: GGGAGUUCUACAGUCCGACGAUCUUUGGGAGGGUGAGGGACUUCCUGUAACCACUUAUUUCAUGGAUACUUGGAAUGACUAUUAAAAAAAGACAAAACCAAAAAAAAAAAAAAACAAAACAAUGUACAAAGUCCUCAGCCACACAACAGAGGAUUGAGCAUCA
B19: chr11:64571133:64571134:-_ENSG00000133895_ENST00000312049|hu_hu|FALSE|FALSE (ssRNA)
RNA: GGGAGUUCUACAGUCCGACGAUCCUGAAAAAUAAAUCUAUGUACAAAACAGGAAGAGAUCAGGCUCUUGUCACCCACUCCUAACCCUCUGCAGAUUUCCUCCGGGAUGCUCCGAGAUGGGCUGGACCUCUGGGAGGUUCCCAGCAACAGAGGAUUGAGCAUCA
B20: chr2:42509997:42509998:+_ENSG00000143924_ENST00000318522|hu_mus|hu_hu_hu_mus_True|28_68 (ssRNA)
RNA: GGGAGUUCUACAGUCCGACGAUCUCGCUGAGUCCUCUCCUCAUAAUUAAACAGGACUACCACUGAGGCAAUGAAAUAAACUAUCUCCCCUGUGGGAAGCAGGUAUACAUUAGCUCUACAGUCCUUUCCUCGAUAACCGUAUACCAACAGAGGAUUGAGCAUCA
B21: chr1:36752661:36752662:+_ENSG00000054118_ENST00000354618|hu_hu|FALSE|FALSE (ssRNA)
RNA: GGGAGUUCUACAGUCCGACGAUCCCCAGACUGAUACCCGGCACCACUCGGCAGAGUUGAGCCCAUCUGGGAUGUGCUGGAAAGUGGAGGACUAGGUUUUGGCACGGGGCUAGGACGGGGUGACCGCCGCCUCACCACCACAGACAACAGAGGAUUGAGCAUCA
B22: chrX:67713009:67713010:-_ENSMUSG00000073139_ENSMUST00000101506|mus_hu|FALSE|FALSE (ssRNA)
RNA: GGGAGUUCUACAGUCCGACGAUCUAAGGAGAGCAAAAAUAGUGGCUUUAGCUACAUUUUUUACACACUGAGCAGGAAAGUCUAAACCAUCCCGUUCCCCUGUACCCCAAAGAGAACAGGGCUUGCUGGAGGCCAGUGCCAAGGCAACAGAGGAUUGAGCAUCA

Biological target: T1, UNK ZnF1-3
Test: nsRBNS (natural sequence RNA bind-n-seq); RBNS binding buffer (assumed for nsRBNS): 25 mM Tris pH 7.5, 150 mM KCl, 3 mM MgCl2, 0.01% Triton X-100, 500 ug/ml BSA, 20 U/ml SUPERase-In, 4 C; UNK is unkempt and MSI1 is Musashi-1; names of the RNAs are library labels; protein concentration not given here; high values mean tight binding

Binder | binding signal
B1 | 2 enrichment R
B2 | 1.61 enrichment R
B3 | 0.78 enrichment R
B4 | 0.32 enrichment R
B5 | 0.594 enrichment R
B6 | 0.659 enrichment R
B7 | 2.09 enrichment R
B8 | 0.926 enrichment R
B9 | 0.694 enrichment R
B10 | 0.504 enrichment R
B11 | 2.05 enrichment R
B12 | 1.33 enrichment R
B13 | 1.62 enrichment R
B14 | 0.95 enrichment R
B15 | 0.658 enrichment R
B16 | 1.06 enrichment R
B17 | 0.592 enrichment R
B18 | 1.15 enrichment R
B19 | 1.21 enrichment R
B20 | 0.926 enrichment R
B21 | 1.73 enrichment R
B22 | 0.836 enrichment R

— paper PMC12136788
